According to paper PMC9911399, “Two distinct binding modes provide the RNA-binding protein RbFox with extraordinary sequence specificity”:
Changes are numbered by the printed parent chain; changes in the protein carry UniProt numbers. The list shows a part of the results.

B1: CAUAUGC (DNA:RNA)
RNA: GGGAGACCGGAAUUCAGAUUGUCCCAUAUGCUUAAAUCCCGUCGUAGCCACCA
DNA 1: CAATCTGAATTCCGGTCTCCC
DNA 2: TGGTGGCTACGACGGGATT
B2: GGUUCUA (DNA:RNA)
RNA: B1 RNA with C25G, A26G, A28U, U29C, G30U, C31A
DNA 1: CAATCTGAATTCCGGTCTCCC
DNA 2: TGGTGGCTACGACGGGATT
B3: GCUUCUU (DNA:RNA)
RNA: B1 RNA with C25G, A26C, A28U, U29C, G30U, C31U
DNA 1: CAATCTGAATTCCGGTCTCCC
DNA 2: TGGTGGCTACGACGGGATT
B4: UGGAUAU (DNA:RNA)
RNA: B1 RNA with C25U, A26G, U27G, G30A, C31U
DNA 1: CAATCTGAATTCCGGTCTCCC
DNA 2: TGGTGGCTACGACGGGATT
B5: UUUUUGC (DNA:RNA)
RNA: B1 RNA with C25U, A26U, A28U
DNA 1: CAATCTGAATTCCGGTCTCCC
DNA 2: TGGTGGCTACGACGGGATT
B6: AGCCCAA (DNA:RNA)
RNA: GGGAGACCGGAAUUCAGAUUGUCCAGCCCAAUUAAAUCCCGUCGUAGCCACCA
DNA 1: CAATCTGAATTCCGGTCTCCC
DNA 2: TGGTGGCTACGACGGGATT
B7: AUUGCUA (DNA:RNA)
RNA: B6 RNA with G26U, C27U, C28G, A30U
DNA 1: CAATCTGAATTCCGGTCTCCC
DNA 2: TGGTGGCTACGACGGGATT
B8: GCAUAAU (DNA:RNA)
RNA: B6 RNA with A25G, G26C, C27A, C28U, C29A, A31U
DNA 1: CAATCTGAATTCCGGTCTCCC
DNA 2: TGGTGGCTACGACGGGATT
B9: GCUGUCA (DNA:RNA)
RNA: B1 RNA with C25G, A26C, A28G, G30C, C31A
DNA 1: CAATCTGAATTCCGGTCTCCC
DNA 2: TGGTGGCTACGACGGGATT
B10: ACGACGA (DNA:RNA)
RNA: B6 RNA with G26C, C27G, C28A, A30G
DNA 1: CAATCTGAATTCCGGTCTCCC
DNA 2: TGGTGGCTACGACGGGATT
B11: UCGUAGA (DNA:RNA)
RNA: B6 RNA with A25U, G26C, C27G, C28U, C29A, A30G
DNA 1: CAATCTGAATTCCGGTCTCCC
DNA 2: TGGTGGCTACGACGGGATT
B12: GGUUACU (DNA:RNA)
RNA: B6 RNA with A25G, C27U, C28U, C29A, A30C, A31U
DNA 1: CAATCTGAATTCCGGTCTCCC
DNA 2: TGGTGGCTACGACGGGATT
B13: UUGCAUG (DNA:RNA)
RNA: B6 RNA with A25U, G26U, C27G, C29A, A30U, A31G
DNA 1: CAATCTGAATTCCGGTCTCCC
DNA 2: TGGTGGCTACGACGGGATT
B14: ACUAGCU (DNA:RNA)
RNA: B1 RNA with C25A, A26C, U29G, G30C, C31U
DNA 1: CAATCTGAATTCCGGTCTCCC
DNA 2: TGGTGGCTACGACGGGATT
B15: GAACACC (DNA:RNA)
RNA: B1 RNA with C25G, U27A, A28C, U29A, G30C
DNA 1: CAATCTGAATTCCGGTCTCCC
DNA 2: TGGTGGCTACGACGGGATT
B16: GGAUCCC (DNA:RNA)
RNA: B6 RNA with A25G, C27A, C28U, A30C, A31C
DNA 1: CAATCTGAATTCCGGTCTCCC
DNA 2: TGGTGGCTACGACGGGATT
B17: GACUCGG (DNA:RNA)
RNA: B6 RNA with A25G, G26A, C28U, A30G, A31G
DNA 1: CAATCTGAATTCCGGTCTCCC
DNA 2: TGGTGGCTACGACGGGATT
B18: AGCGGCC (DNA:RNA)
RNA: B6 RNA with C28G, C29G, A30C, A31C
DNA 1: CAATCTGAATTCCGGTCTCCC
DNA 2: TGGTGGCTACGACGGGATT
B19: CCCGCGC (DNA:RNA)
RNA: B1 RNA with A26C, U27C, A28G, U29C
DNA 1: CAATCTGAATTCCGGTCTCCC
DNA 2: TGGTGGCTACGACGGGATT
B20: UGGUGAA (DNA:RNA)
RNA: B6 RNA with A25U, C27G, C28U, C29G
DNA 1: CAATCTGAATTCCGGTCTCCC
DNA 2: TGGTGGCTACGACGGGATT

The binders below were run against T1, RBFOX1 RRM RbFoxmut (Fox-RRM*) (Homo sapiens, UniProt Q9NWB1 109-208, R118D;E147R;N151S;E152T) (assay: EMSA; HiTS-Eq, 1 nM pool, 10 min; buffer printed only for the single-RNA assays: 10 mM Tris pH 7.5, 150 mM NaCl, 3.4 mM EDTA, 0.001% NP-40, 30 C). Conditions: tags: His6 N-terminal (pET28a); label: 5' 32P.
T1 sequence: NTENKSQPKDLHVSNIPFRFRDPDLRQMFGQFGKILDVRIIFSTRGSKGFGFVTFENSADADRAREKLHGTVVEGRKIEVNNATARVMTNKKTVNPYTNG
Method in brief: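 A pool of RNA with 7 randomized nucleotides, 5′-radiolabelled and with DNA-annealed flanks, was equilibrated at 1 nM for 10 min in 50 µL with purified RbFox RRM, wild type or mutant, across increasing protein concentrations. Free RNA was separated by 8% native PAGE, excised, reverse-transcribed, barcoded by PCR and sequenced. Relative association constants were obtained from read-count changes of each RNA species versus the control reaction and normalised to the cognate motif.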

Binder | binding signal
B1 | 0.132 KA relative to UGCAUGU
B2 | 0.107 KA relative to UGCAUGU
B3 | 0.0703 KA relative to UGCAUGU
B4 | 0.122 KA relative to UGCAUGU
B5 | 0.0943 KA relative to UGCAUGU
B6 | 0.085 KA relative to UGCAUGU
B7 | 0.165 KA relative to UGCAUGU
B8 | 0.115 KA relative to UGCAUGU
B9 | 0.084 KA relative to UGCAUGU
B10 | 0.0741 KA relative to UGCAUGU
B11 | 0.125 KA relative to UGCAUGU
B12 | 0.0688 KA relative to UGCAUGU
B13 | 0.909 KA relative to UGCAUGU
B14 | 0.127 KA relative to UGCAUGU
B15 | 0.0368 KA relative to UGCAUGU
B16 | 0.134 KA relative to UGCAUGU
B17 | 0.082 KA relative to UGCAUGU
B18 | 0.224 KA relative to UGCAUGU
B19 | 0.0883 KA relative to UGCAUGU
B20 | 0.117 KA relative to UGCAUGU
